The values that follow come from PMC12136788.

The list shows a part of the results.

B1: chr1:231019617:231019718:-|3pUTR|ENSG00000182118|msi1|total|mutant (ssRNA)
RNA: GGGAGUUCUACAGUCCGACGAUCGCAGGGAGUUCUCCGCGGAUGCAUGGUGGCAGUCUGCUUUGAUGGCAGCAGUUUCUGCUCCGGUGACCCCGAGGUCCUCAGCAGUAUCCUCCACACCUAUUUAUUGAGGUGCACCUGCUGCAACAGAGGAUUGAGCAUCA
B2: chr11:102955251:102955493:-|CDS|ENSG00000137745|control|control|control (ssRNA)
RNA: GGGAGUUCUACAGUCCGACGAUCCCGAGAAAUGCAGUCUUUCUUCGGCUUAGAGGUGACUGGCAAACUUGACGAUAACACCUUAGAUGUCAUGAAAAAGCCAAGAUGCGGGGUUCCUGAUGUGGGUGAAUACAAUGUUUUCCCCAACAGAGGAUUGAGCAUCA
B3: ENSG00000184840:stop:overlap|stop_codon|ENSG00000184840|stop_codon|NA|stop_codon (ssRNA)
RNA: GGGAGUUCUACAGUCCGACGAUCCCAUCGGUGUCUGGCAGAUGCGGCACCUCAAGAGCUUCUUUGAAGCCAAGAAGCUUGUGUAGCUGUCCCAGGCGUCACAACCCAUCCUCCCAGGCUGGGGGAGAAAGGACCUCCUGGAACCAACAGAGGAUUGAGCAUCA
B4: chr7:77639488:77639589:+|3pUTR|ENSG00000127947|msi1|FALSE|bound_elsewhere (ssRNA)
RNA: GGGAGUUCUACAGUCCGACGAUCAGUAUUAUUGCCUUAAUGUCUCUUAACCCUGUUACACGCUGCUUGUAGACAUGUUAAUAUAGUAAUACCUUUAUGAUAUAUUGAGUUUAAGGACUACUCUUUUUCUGUUUUAUCAUGUAUCAACAGAGGAUUGAGCAUCA
B5: chr10:101781316:101781432:-|3pUTR|ENSG00000107833|unk|FALSE|unique (ssRNA)
RNA: GGGAGUUCUACAGUCCGACGAUCCCCACCUGCCUGUGAGAAUUGGAGGUUAGUGCCUGAAGCUCAGAGCUACACAUUUUUAAUAGUUUUUACAUUUUUGGAUAAAGGUUGAAAUAAAGUGGUGUGGAGUUUUUGCAGCUCUUGCAACAGAGGAUUGAGCAUCA
B6: chr11:11963431:11963477:-|3pUTR|ENSG00000050165|msi1_unk|FALSE|overlapping (ssRNA)
RNA: GGGAGUUCUACAGUCCGACGAUCUUGACACUGUCCCUCUUUGGCAGUUGCAUUAGUAACUUUGAAAGGUAUAUGACUGAGCGUAGCAUACAGGUUAACCUGCAGAAACAGUACUUAGGUAAUUGUAGGGCGAGGAUUAUAAAUCAACAGAGGAUUGAGCAUCA
B7: chr16:70398910:70399011:-|5pUTR|ENSG00000157350|unk|total|mutant (ssRNA)
RNA: GGGAGUUCUACAGUCCGACGAUCCACUUGCAUGGAACCCAAGUCCCCUGAAGCCCCUGUGCUCUCUGUUGUGAUUGGAGUUCCCGGGCUUCCCCGCUGCCGGGAACGAGGGGCCGCCUCAUUGUCUGCUCAUGAACCACAAGGCAACAGAGGAUUGAGCAUCA
B8: chr19:5558166:5561399:-|three_prime_utr|ENSG00000223573|control|control|control (ssRNA)
RNA: GGGAGUUCUACAGUCCGACGAUCCCAGCUGAUGCACACUGCUUCAGACACUCCUGCUGGAGCCCCAGUCCCUGACAAGGACCUAGGACAUUUUUGCUCCUGCCCAGCCUAUCGGGAGGGAGCCUUGAGCCUUUCAGCUCUGCUCAACAGAGGAUUGAGCAUCA
B9: chr15:101302471:101305355:-|three_prime_utr|ENSG00000140479|control|control|control (ssRNA)
RNA: GGGAGUUCUACAGUCCGACGAUCACGGAAGCUCUUCAUUCAGUUCUGCUGCCGCACGUGCCUCCUGGCCGGGUAAGGGUGCCUAGCUGCCCACAGAGGGCAGGCACUCCCAUCCAUCCAUCCGUCCACCUUCCUCCAGACUGUCAACAGAGGAUUGAGCAUCA
B10: chr22:41636480:41636706:+|CDS|ENSG00000196419|unk|total|mutant (ssRNA)
RNA: GGGAGUUCUACAGUCCGACGAUCAUGGGCCACGGAUCUGACUACUCACUCAGUGAAGUGCUGUGGGUCUGUGCCAACCUCUUCCGUGAUGUCCAAUUCAAGAUGAGUCAUAAGAGGAUCAUGCUGUUCACCAAUGAAGACAACCAACAGAGGAUUGAGCAUCA
B11: chr14:69053859:69055611:-|CDS|ENSG00000139990|control|control|control (ssRNA)
RNA: GGGAGUUCUACAGUCCGACGAUCUGUGAGACCCCCAAUGCUGGAACAAGAGAGGACCCCACUGACACCCCAGCCACAGAUAGUAGCAGGGCUGUUCAUGGCCACAGUGGCCUCAAAAGGCAACGAAUUGAAUUGGAAGAUACACAACAGAGGAUUGAGCAUCA
B12: chr15:69271217:69271318:+|3pUTR|ENSG00000138604|msi1|total|mutant (ssRNA)
RNA: GGGAGUUCUACAGUCCGACGAUCGCAACAGCAAGUUGAUUUCUUGUGAUCCCAGAAUUUUCUAAGAGGAUGAGUUGAAUCUACCGCAGCAUUGUCAGUACAGACCAGUGGUUCUCAAACUUUAAAAUGCCUCAGCAUCACUUGCAACAGAGGAUUGAGCAUCA
B13: chr1:154584646:154584747:-|3pUTR|ENSG00000160710|unk|total|mutant (ssRNA)
RNA: GGGAGUUCUACAGUCCGACGAUCAUGCUCCAGUGACAGAUGGAUCCGGGUGUGUCAUACCCGGGUGUGAGAGAGGCCGGUCGCCGCAUUCCUCAUCACAUGGUCAGGGGAUUUUUUUUUCUCCUUUUUUUUUCUUUUUAAGCCCAACAGAGGAUUGAGCAUCA
B14: chr6:35869508:35869609:-|CDS|ENSG00000096063|unk|FALSE|unique (ssRNA)
RNA: GGGAGUUCUACAGUCCGACGAUCGACACCAUGGUGUGCCAGUCUUCCUCAACUGUAGGUCAGUCAUUCAGUGAACAACACAUUAGCCAACUUCAAGAAAGCAUUCGGGCAGAGAUACCCUGUGAAGAUGAACAAGAGCAAGAACAACAGAGGAUUGAGCAUCA

This experiment has as its target MSI1 full-length (mouse, UniProt Q61474 1-362). Kind of experiment: nsRBNS (natural sequence RNA bind-n-seq); RBNS binding buffer (assumed for nsRBNS): 25 mM Tris pH 7.5, 150 mM KCl, 3 mM MgCl2, 0.01% Triton X-100, 500 ug/ml BSA, 20 U/ml SUPERase-In, 4 C; UNK is unkempt and MSI1 is Musashi-1; names of the RNAs are library labels; protein concentration not given here; high values mean tight binding.
Sequence of UniProt Q61474 (Q61474 whole entry): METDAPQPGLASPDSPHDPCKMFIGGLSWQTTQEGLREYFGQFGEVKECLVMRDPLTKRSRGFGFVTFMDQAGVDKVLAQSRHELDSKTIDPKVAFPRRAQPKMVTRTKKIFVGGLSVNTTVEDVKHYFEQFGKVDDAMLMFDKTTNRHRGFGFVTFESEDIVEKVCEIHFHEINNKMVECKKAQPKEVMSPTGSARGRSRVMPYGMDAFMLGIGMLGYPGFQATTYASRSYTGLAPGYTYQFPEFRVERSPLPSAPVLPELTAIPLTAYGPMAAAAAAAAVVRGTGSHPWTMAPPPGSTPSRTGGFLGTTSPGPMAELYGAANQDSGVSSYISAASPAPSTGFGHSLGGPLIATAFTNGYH
Molecule B1 displayed a binding signal of 0.43 enrichment R. The result for B2 reads 0.595 enrichment R; that for B3, 0.931 enrichment R. B4 displayed a binding signal of 1.67 enrichment R. With B5, the binding signal worked out at 0.865 enrichment R. The result for B6 reads 1.59 enrichment R; that for B7, 0.446 enrichment R. Regarding B8, the binding signal was determined as 0.438 enrichment R. For the molecule B9, the binding signal worked out at 0.558 enrichment R. With B10, the binding signal came out at 0.362 enrichment R.

The molecule B11 gave a binding signal of 0.764 enrichment R. The result for B12 reads 0.318 enrichment R. B13 yielded a binding signal of 0.712 enrichment R. The result for B14 reads 0.39 enrichment R.
